The source gives no read counts; variants with many changes may rest on few reads.
B1: LINE1-mini (parent)
chain: GGCAGAGCUCAACACAGCGUGGCAAAGUGGCUGUGGCUAGACUGCC

Variants of: B1
Test: self-cleavage, relative activity (ratio to wild type); higher = more cleavage; in vitro, sequencing; the parent is a self-cleaving ribozyme

Row | Variant | self-cleavage
1 | U9G A12G C37G | 0.02
2 | A16C G33A A39G | 0.02
3 | G1U G27C C31U | 0.01
4 | U9A G27A G30U U43A | 0.35
5 | G2C G19A G30C C42U | 0.01
6 | C3U A26C C31A | 0.11
7 | C8A G19C G29A | 0.17
8 | U9A G22U U28C U32A | 0.16
9 | G7A C13U G36C C46G | 0.27
10 | G5U C10A A14C C45U | 0.02
11 | C8A G17A C18G A41U | 0.14
12 | G2U C3A C42U | 0.07
13 | G2A C10U U20G C42G | 0.06
14 | C3G G40U C45U C46G | 0.13
15 | A4U G19U A24U | 0.06
16 | A11G G22A A41U | 0
17 | G22A G29C A41G | 0.16
18 | G5A C18A A24U | 0.07
19 | A11C C13A C31U G40U | 0.03
20 | G2C A6U A12U G40U | 0.03
21 | G19U U20G U28G G35A | 0.13
22 | A6G G27U C45U | 0.08
23 | U20G C42A G44U | 0.02
24 | C3U C15U G19C | 0.46

Row | Variant | self-cleavage
25 | G29U G36C C37G | 0.07
26 | G36U G40U C46G | 0.44
27 | C10U C23U U28C C31G | 0.23
28 | C15U U20A G27U U28A | 1.12
29 | G1A G7U C10U C18A A25G | 0.05
30 | G21A G40C A41U C45A | 0.02
31 | G21U U34C G35U | 0.03
32 | A11G A25G C37U | 0.02
33 | A6U A12C C15G C18A U32A | 0.01
34 | A4U G22U G27A C31U | 0.17
35 | C18A G22U U34G | 0.02
36 | G5U U9A C10G U32G G44A | 0.02
37 | A6C A24G C45A | 0.09
38 | G1A G7C U34G U38C | 0.05
39 | G7C G17C G21C A26G G30C | 0.08
40 | C8U A16G U20G C23A U34A | 0.02
41 | G2C G7A A11U G44C | 0.01
42 | G7U C15A C42A C45G | 0.4
43 | G2U U9A G19U G21U G22A | 0.01
44 | G2U A25G C31A | 0.02
45 | G5U C31A C37G C46G | 0
46 | C8G A11G G17U C18A | 0.01
47 | G5C C13A U43A C45U | 0.02
48 | C3A A12G C13U G17C G30A U38A C45G | 0.01

Row | Variant | self-cleavage
49 | C13U C23G G29C C45U | 0.08
50 | C3G G21A C31G | 0.04
51 | C3G A4U A24G | 2.33
52 | C8G G30C C37U C45A C46A | 0
53 | A6U G30U G36A | 0.12
54 | C3U C13A C45U | 0.05
55 | C15U A16U G27A C31A G35A | 0.03
56 | U9C A14U C42G | 0.01
57 | G2U G17A G21U G27U U38A | 0.01
58 | C15A U28G G40C | 0.02
59 | A16U C31U C37A C46A | 0.01
60 | G7A G17A C42G | 0.25
61 | G2U G5A A12C A14C A25G U28A | 0.01
62 | G2C C3A A14C A16U | 0.06
63 | G2U A14C A39U | 0.03
64 | C8U G17A G40C | 0.03
65 | G1U G7C A11G G22U C37A A41G | 0
66 | A14G C42A C46G | 0.02
67 | G1C A25U C46A | 0.22
68 | G1C G21U C31U | 0.06
69 | C10A C13A A26C A39C | 0.02
70 | A11U G17U U34C G44C C45A C46U | 0.02
71 | U20C G21A U38A C46A | 0.55
72 | C3U G5U A25G C31A | 0.04

Row | Variant | self-cleavage
73 | C3A G7U G27U G35A | 0.21
74 | A14U U20A G29U A41U | 0.42
75 | G7C C8U G22A G27U G36A | 0.06
76 | G22A A24C C45G | 0.52
77 | C8A U9G C10G A26U U28G G30A | 0.02
78 | A14U A16G A24U U34C | 0.14
79 | G7C U9G A12U C13A A16G C18U | 0
80 | A4U C37G G44C | 0.01
81 | U9C C23U G27U G44C | 0.01
82 | C8U G19U G22A | 0.19
83 | G1U A16C G33U C37U A41U | 0.02
84 | C15A G22U C31A G36C | 0.04
85 | G1A G17A C18U G29A U38C | 0.14
86 | A11U C31G C37U G40C | 0
87 | A4C A26U G27C | 0.01
88 | G7C G21A C46A | 0.15
89 | G2U G21U A26G | 0.01
90 | A14G A26U G27U G30A A39C | 0.01
91 | C10G G19A A26C C37G C42U | 0
92 | G2A G17U G30U | 0.13
93 | A11C U28G C31U G35U G36A C45A | 0
94 | G2U A11U G29A U38G | 0.01
95 | G21C G27C U28A | 0.47
96 | G2A G7C A14G A39U | 0.01

Row | Variant | self-cleavage
97 | C10A C13G C31A G44C | 0.02
98 | A6U C23A G29U | 0.26
99 | C3U C13A C45G | 0.1
100 | C10A A24G G40A G44C | 0.01
101 | A6G G7C A14U U20C C37A G40A | 0.06
102 | G1C A4C A24U G35U | 0.01
103 | G30A G40C U43C | 0.05
104 | C8G U9G C15U A16U C23G | 0
105 | C10G U38G C45G | 0
106 | C13G G17C G19C U34C C37U A41C C46G | 0.04
107 | G2A C10A C18A U20A G22C G36C C37U A41U | 0.01
108 | G7C C8G G27C U34A | 0.02
109 | C15A G21U U34G G36U G40U | 0.03
110 | C3U C10U U20G U32A U43A | 0.04
111 | A4C G5A G29A C45A | 0.08
112 | G29A G35C A41U | 0.03
113 | G5U A12U C46G | 0.01
114 | A14U U32A A41U | 0.02
115 | G1C A16G A24C | 0.01
116 | C3U G22U U32G U38A C46A | 0.04
117 | C3U A14U G35C C37U | 0.07
118 | G5U A39G G44C | 0.09
119 | C23U G27U U32C | 0.31
120 | G2C A6U G29U | 0.14

Row | Variant | self-cleavage
121 | U28A U34C C46A | 0.06
122 | C10A A14G C23G | 0.02
123 | G21C A25U G30C C31A | 0.21
124 | G5U G29C C37U | 0.01
125 | C3G A11G A24U G40C | 0.01
126 | G2A A11C G30U | 0
127 | C15G A25C G33C C42A | 0.05
128 | C18G U32C G44A | 0.04
129 | C8A C18A G22C G40A A41G | 0.58
130 | A16G U38A G40C | 0.01
131 | G2A A16U G19C | 0.29
132 | G17U C37G C46U | 0.02
133 | C3G A6G C18U A41U | 0.07
134 | C15A C18U U32G G44C | 0.02
135 | C3G U9G G19A U43G | 0.04
136 | C3G U20A C31A C37G | 0.02
137 | C3A C23A A41G | 0.07
138 | C3G C18A G30C | 0.2
139 | A16U U20G C31U | 0.01
140 | C13U A14U G17U | 0.05
141 | G1U C23G G27C G33A C46A | 0.57
142 | G7C C18A A41U | 0.07
143 | G2C A12C G17A A41G | 0.03
144 | A4G A11U A24G | 0.02

Row | Variant | self-cleavage
145 | G21A U34A C37U C46U | 0.01
146 | G5C G40U C45A | 0.04
147 | A16U U20C G35U G40U | 0.05
148 | G5U A11U C13A G27C C31U A41C | 0.04
149 | C3U A6C A11C C15A G27A A39C | 0.02
150 | U9C C13U G33A A39G | 0.05
151 | G19C C37A A39C G40U | 0
152 | C3U A16G G19U | 0.1
153 | G21U G27C G35A | 0.14
154 | C15U U20C C46A | 0.08
155 | G21U C23U U28C C37G | 0.01
156 | G22A G29U G36U C37G | 0.02
157 | G7C U9C C42A | 0.01
158 | C13U G17C G19U G22U G35C | 0.04
159 | G19U G21C U38C | 0.22
160 | A12U C18U U38C A39G | 0.02
161 | A12G G19A A26G | 0
162 | C15A G21U C23U G27U | 0.13
163 | A4U G7C A24G C37G U38C | 0.03
164 | G2C G7C G40U | 0.07
165 | G1A A14G G27A | 0.29
166 | A4U C13G G21U G30U | 0.26
167 | C3G A4C U28C U34A | 0.07
